Data published in PubChem BioAssay AID1477 (National Center for Advancing Translational Sciences (NCATS), 2009).
Among all 230,000 compounds or so, fewer than 10 were called active. The inconclusive results got no clear call from the source; some entries with a clear call stand among them for comparison. Calls follow the shape of the dose curve; as a rule, active = well fitted curve in the direction sought with a large enough effect; inconclusive = small, poorly fitted or top-dose-only effect, or effect the other way, or another doubt; inactive = no such curve, though single readings can be large or run the other way. No potency is given beside an inconclusive call; the fits are too rough.

Target: Runt-related transcription factor 1 (Homo sapiens) + Core-binding factor subunit beta (Homo sapiens) (UniProt Q01196+Q13951)
Assay: qHTS Assay for Compounds Blocking the Interaction Between CBF-beta and RUNX1 for the Treatment of Acute Myeloid Leukemia; as to activity, negative = inhibition: % of control where 0% means no effect
Settings: AlphaScreen CBFb-His/RUNX1-biotin binding, biochemical; activity, negative = inhibition: at 59.8 µM (top of the series) unless noted
Outline: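 CBFb-His/RUNX1-biotin, 30 nM each, preincubated 20 min RT; compound 15 min RT; Ni + streptavidin beads 50 ng each, 90 min RT; AlphaScreen read.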

SMILES	Potency	activity, negative = inhibition
CC1(OC(=O)CCc2ccccc2)C(=O)C=C2C=C(c3ccsc3)OC=C2C1=O (stereo unspecified)	inconclusive [inhibitor, single point]	–
CCCC(=O)Nc1nnc(SCC(=O)Nc2ccc3c(c2)OCO3)s1	inconclusive [inhibitor, partial curve]	–
CN(C)c1nc(SCc2ccc(Cl)cc2)nc2c1CCCC2	inconclusive [activator, single point]	–
CCOC(=O)/C(C#N)=N/Nc1ccc(S(=O)(=O)N2CCc3ccccc32)cc1	inconclusive [inhibitor, single point]	–
O=[N+]([O-])c1ccc(NNC(=S)Nc2ccc(F)cc2)cc1	inconclusive [inhibitor, single point]	–
O=C(CSc1nnc(-c2ccccc2)o1)c1ccc2c(c1)OCCO2	inactive	–
COc1ccc2sc3ccccc3c(=O)c2c1	inconclusive [activator, partial curve]	–
OCCC1CN(Cc2cccc(-c3ccco3)c2)CCN1Cc1ccsc1 (stereo unspecified)	inactive	–
O=C(c1ccc([N+](=O)[O-])s1)N1CCN(c2cccc(Cl)c2)CC1	inconclusive [inhibitor, single point]	–
CCOc1ccc(N2C(=O)NC(=O)/C(=C\c3cc(OC)c(OC)cc3[N+](=O)[O-])C2=O)cc1	inactive	–
CCOc1ccc(NCc2nnc(SCc3ccccc3Cl)n2-c2ccccc2)cc1	inconclusive [inhibitor, single point]	–
O=C(CSc1ccccc1F)NC(=O)NCc1ccco1	inconclusive [inhibitor, partial curve]	–
CCOc1ccccc1N1CCN(C2=C(NS(=O)(=O)c3cccs3)C(=O)c3ccccc3C2=O)CC1	inconclusive [inhibitor, single point]	–
Cn1c(=O)c2ncn(CC(=O)N/N=C/c3ccco3)c2n(C)c1=O	inactive	–
Fc1ccccc1COc1ccc(-c2nnn(Cc3ccccc3F)n2)cc1	inconclusive [activator, single point]	–
O=C(Nc1nnc(-c2ccccc2Cl)o1)c1nc2ccccc2s1	inconclusive [inhibitor, single point]	–
CC1(OC(=O)CCc2ccccc2)C(=O)C=C2C=C(c3ccc(C#N)cc3)N(c3ccccc3)C=C2C1=O (stereo unspecified)	inconclusive [inhibitor, partial curve]	inactive: -1.53% [at 13.1 µM]
CCCCN(CCCC)S(=O)(=O)c1ccc(NC(=O)CN2CCOCC2)cc1	inconclusive [inhibitor, single point]	–
COC(=O)c1ccc(C(=O)O)nc1	inconclusive [inhibitor, single point]	–
O=C(c1ccco1)N1CCn2cccc2C1c1ccccc1 (stereo unspecified)	inconclusive [inhibitor, single point]	–
COc1ccc2c(c1)-c1c(ssc1=S)C(C)(C)N2	inactive	–
COc1ccc(/C=N/NC(=O)c2cccc([N+](=O)[O-])c2)cc1OS(=O)(=O)c1ccc(C)cc1	inactive	–
COC(=O)NC(=S)Nc1ccccc1NC(=S)NC(=O)OC	inactive	–
C/C(=N\NC(=O)c1cc(-c2cccs2)nc2ccccc12)c1ccccn1	inconclusive [inhibitor, partial curve]	–

SMILES	Potency	activity, negative = inhibition
O=P(N[C@@H](c1ccccc1)[C@@H]1C[C@H]1CO)(c1ccccc1)c1ccccc1	inconclusive [inhibitor, partial curve]	–
CC(=Nc1ccc(C)cc1C)c1sc2ccccc2c1O	inconclusive [activator, single point]	–
O=C(CSc1n[nH]c(-c2cc(Cl)ccc2Cl)n1)NCCN1C(=O)CSC1=O	inactive	–
CN(C)c1nc(N)nc(CSc2ncc(Cl)cc2Cl)n1	inactive	–
CC(C)(C)NC(=O)CSc1nnc(NC(=O)c2ccccc2Cl)s1	inactive	–
Cn1cc(C=C2C(=O)Nc3cccnc32)c2ccccc21	inconclusive [inhibitor, partial curve]	–
COc1ccc(-c2nc(C#N)c(N3CCN(c4ccccc4)CC3)o2)cc1	inactive	–
COc1ccc2c(c1)[N+](C)(C)C(C)(C)C=C2C	inactive	–
Cc1ccc(CN2CCN(Cc3ccc4cc(F)ccc4n3)CC2CCO)o1 (stereo unspecified)	inconclusive [inhibitor, single point]	–
CC1(C)NC(=O)N(CC(=O)Nc2cc(S(=O)(=O)N3CCOCC3)ccc2N2CCOCC2)C1=O	inconclusive [inhibitor, partial curve]	–
Nc1ccc(S(=O)(=O)Nc2cccc3cccnc23)cc1	inactive	–
Nc1ccc(-c2ccc(N)c(N)c2)cc1N	inconclusive [inhibitor, partial curve]	–
Cc1ccc(NC(=O)c2ccc([N+](=O)[O-])cc2Cl)nc1	inconclusive [inhibitor, single point]	–
O=C(/C(=C/O)N=Nc1ccccc1)c1ccc(Cl)cc1	inconclusive [inhibitor, single point]	–
O=C1CSC(=S)N1/N=C/C=C/c1ccccc1	inconclusive [inhibitor, single point]	–
CC1(C)Cc2c(sc3[nH]c(=S)n(Cc4ccco4)c(=O)c23)CO1	inconclusive [inhibitor, single point]	–
O=S(=O)(Nc1ccc2c(c1)OCCO2)c1cccc2nsnc12	inactive	–
Cc1cccc(CSc2ccc(-c3cccs3)nn2)c1	inconclusive [activator, partial curve]	–
CC(C)(CO)NCC(=O)Nc1cc(C(F)(F)F)cc(NC(=O)CNC(C)(C)CO)c1Cl	inconclusive [activator, single point]	–
CCCC1([C@H](O)C/C=C/[C@H]2[C@H](O)CC(=O)[C@@H]2CCCCCCC(=O)OC)CCC1	inconclusive [activator, partial curve]	–
COC(=O)CCC(=O)OC1(C)C(=O)C=C2C=C(C3CC3)N(Cc3ccccc3)C=C2C1=O (stereo unspecified)	inconclusive [inhibitor, partial curve]	–
O=C(C[n+]1ccccc1)Nc1c(Cl)cc(Cl)cc1Cl	inactive	–
O=C(N/N=C/c1cc(Br)ccc1O)c1ccncc1	inconclusive [inhibitor, partial curve]	–
COc1ccc(C2=Nn3c(nnc3-c3ccccn3)SC2)cc1	inconclusive [inhibitor, single point]	–

SMILES	Potency	activity, negative = inhibition
COc1ccc(NC(=S)NNC(=O)c2nnn(-c3ccccc3)c2C)cc1	inconclusive [inhibitor, partial curve]	–
Clc1ccc(-c2noc(CCCOc3ccccc3)n2)cc1	inconclusive [activator, single point]	–
COC(=O)C1=C(C)Nc2nnnn2C1c1cc(OC)ccc1OC (stereo unspecified)	inactive	–
Cc1ccc(C(=O)NCCNS(C)(=O)=O)cc1	inconclusive [activator, full curve, poor fit]	–
N#CC(C#N)=C(N)/C(C#N)=C/c1ccc2[nH]ccc2c1	inactive	–
Cc1ccc(NS(=O)(=O)c2cc(C(=O)O)ccc2Cl)cc1	inactive	–
CCCCCCCCCCCCCC[C@@H](O)[C@@H](O)[C@H](CO)NC(C)=O	inconclusive [activator, single point]	–
CCCCCn1c(CN2CCN(CCO)CC2)nc2c1c(=O)n(C)c(=O)n2C	inactive	–
COc1cccc(OC)c1OCCOc1ccc(C(=O)c2ccccc2)cc1	inconclusive [activator, partial curve]	–
CC(C)=CCC/C(C)=C/COc1c2occc2cc2ccc(=O)oc12	inconclusive [activator, full curve]	–
COc1ccc(/C=N/NC(=O)c2[nH]nc3c2CCc2ccccc2-3)cc1OC	inconclusive [inhibitor, single point]	–
Cc1cnc(NC(=O)c2ccccn2)s1	inconclusive [inhibitor, single point]	–
O=C(CSc1ccc(F)cc1)NCCSc1ccccc1	inconclusive [activator, single point]	–
O=C(N/N=C/c1ccccn1)c1[nH]c2ccc([N+](=O)[O-])cc2c1-c1ccccc1	inconclusive [inhibitor, single point]	–
CN(C)S(=O)(=O)N1CCN(c2ccc([N+](=O)[O-])c(N3CCCCC3)c2)CC1	inconclusive [inhibitor, full curve, poor fit]	–
O=C(CN1CCN(c2ccccc2F)CC1)NC(=O)NCc1ccco1	inconclusive [inhibitor, single point]	–
COc1cccc(NC(=O)c2cc3c(=O)n4ccccc4nc3n(CC(C)C)c2=N)c1	inactive	–
CC(C(=O)NC1CCCc2ccccc21)N1CCN(Cc2ccc3c(c2)OCO3)CC1 (stereo unspecified)	inactive	–
COc1cc(O)c(C(CC(=O)N2CCN(c3ccccc3)CC2)c2ccc(N(C)C)cc2)c(OC)c1 (stereo unspecified)	inconclusive [inhibitor, partial curve, poor fit]	–
CNC(=O)[C@@H]1C[C@H]1[C@@H](NC(=O)OCc1ccccc1)c1ccccc1	inactive	–
O=C(O)CCCC(=O)NNC(=O)c1cccc(Br)c1	inactive	–
COc1ccc(C(=O)NC(=S)Nc2ccc(S(N)(=O)=O)cc2)cc1	inconclusive [inhibitor, single point]	–
